B1: SCR-7783-001-H4-hFc (Fc fusion)
chain: DVQLVESGGGLVQPGGSLRLSCAASGFPSSRGTMAWFRQAPGKEREGVAFINSDGRTSYAESVKGRFTISRDNALSSLYLQMNSLRAEDTAVYYCAASLLYLMTVNAAAYPYWGQGTMVTVSS[omitted - human IgG1 Fc with C220S (EU numbers)]
notes: VHH-huFc (C220S) order with human hinge and Fc; also called SCR-7783 humanized antibody
B2: SCR-7783-001-H5-hFc (Fc fusion)
chain: DVQLVESGGGLVQPGGSLRLSCAASGFPSSRGTMAWFRQAPGKEREGVAFINSDGRTSYAESVKGRFTISRDNALSSLWLQMNSLRAEDTAVYYCAASLLYLMTVNAAAYPYWGQGTMVTVSS[omitted - human IgG1 Fc with C220S (EU numbers)]
notes: as for B1
B3: SCR-7783-001-H6-hFc (Fc fusion)
chain: DVQLQASGGGLVQPGGSLRLSCAASGFPSSRGTMAWFRQAPGKEREGVAFINSDGRTSYAESVKGRFTISRDNALSSLYLQMNSLRAEDTAVYYCAASLLYLMTVNAAAYPYWGQGTMVTVSS[omitted - human IgG1 Fc with C220S (EU numbers)]
notes: as for B1
B4: SCR-7783-001-H7-hFc (Fc fusion)
chain: DVQLVESGGGLVQPGGSLRLSCAASGFPSSRGTMAWFRQAPGKEREGVAFINSDGRTSYAESVKGRFTISRDNALSSLYLQMNSLRAEDTAMYYCAASLLYLMTVNAAAYPYWGQGTQVTVSS[omitted - human IgG1 Fc with C220S (EU numbers)]
notes: as for B1
B5: SCR-7785-001-H2-hFc (Fc fusion)
chain: EVQLVESGGGVVQPGGSLRLSCAASGFTFSRGSWGWFRQAPGKEREAVALISSDGWTFYADSVKGRFTISQDNSKNTLYLQMNSLRAEDTAVYYCAASVLVLRTLNPKAWHHWGQGTMVTVSS[omitted - human IgG1 Fc with C220S (EU numbers)]
notes: VHH-huFc (C220S) order with human hinge and Fc; also called SCR-7785 humanized antibody
B6: SCR-7785-001-H4-hFc (Fc fusion)
chain: EVQLVESGGGVVQPGGSLRLSCAASGDTFSRGSWGWFRQAPGKEREAVALISSDGWTFYADSVKGRFTISQDNTKNTLYLQMNSLRAEDTAVYYCAASVLVLRTLNPKAWHHWGQGTMVTVSS[omitted - human IgG1 Fc with C220S (EU numbers)]
notes: as for B5
B7: SCR-7785-001-H5-hFc (Fc fusion)
chain: EVQLVESGGGVVQPGGSLRLSCAASGDTFSRGSWGWFRQAPGKEREAVALISSDGWTFYADSVKGRFTISQDNSKNTLYLQMNSLRAEDTAMYYCAASVLVLRTLNPKAWHHWGQGTQVTVSS[omitted - human IgG1 Fc with C220S (EU numbers)]
notes: as for B5
B8: SCR-7785-001-H6-hFc (Fc fusion)
chain: EVQLVESGGGVVQPGGSLRLSCAASGDTFSRGSWGWFRQRPGKEREAVALISSDGWTFYADSVKGRFTISQDNSKNTLYLQMNSLRAEDTAMYYCAASVLVLRTLNPKAWHHWGQGTQVTVSS[omitted - human IgG1 Fc with C220S (EU numbers)]
notes: as for B5
B9: SCR-7785-001-H7-hFc (Fc fusion)
chain: EVQLQASGGGVVQPGGSLRLSCAASGDTFSRGSWGWFRQAPGKEREAVALISSDGWTFYADSVKGRFTISQDNSKNTLYLQMNSLRAEDTAVYYCAASVLVLRTLNPKAWHHWGQGTMVTVSS[omitted - human IgG1 Fc with C220S (EU numbers)]
notes: as for B5
B10: SCR-7782-001-H1-hFc (Fc fusion)
chain: EVQLVESGGGLVQPGGSLRLSCAASGFTFSRGSMSWFRQAPGKEREGVAIISSDGWTGYADSVKGRFTISRDNAKNSLYLQMNSLRAEDTAVYYCAASFLVLRALNPKAWHYWGQGTMVTVSS[omitted - human IgG1 Fc with C220S (EU numbers)]
notes: VHH-huFc (C220S) order with human hinge and Fc; also called SCR-7782 humanized antibody
B11: SCR-7785-001-H3-hFc (Fc fusion)
chain: EVQLVESGGGVVQPGGSLRLSCAASGDTFSRGSWGWFRQAPGKEREAVALISSDGWTFYADSVKGRFTISQDNSKNTLYLQMNSLRAEDTAVYYCAASVLVLRTLNPKAWHHWGQGTMVTVSS[omitted - human IgG1 Fc with C220S (EU numbers)]
notes: as for B5
B12: SCR-7782-001-H2-hFc (Fc fusion)
chain: EVQLVESGGGLVQPGGSLRLSCAASGFTFSRGSMSWFRQAPGKEREGVAIISSDGWTGYADSVKGRFTISQDNAKNSLYLQMNSLRAEDTAVYYCAASFLVLRALNPKAWHYWGQGTMVTVSS[omitted - human IgG1 Fc with C220S (EU numbers)]
notes: as for B10
B13: SCR-7782-001-H3-hFc (Fc fusion)
chain: EVQLVESGGGLVQPGGSLRLSCAASGNTFSRGSMSWFRQAPGKEREGVAIISSDGWTGYADSVKGRFTISQDNAKNSLYLQMNSLRAEDTAVYYCAASFLVLRALNPKAWHYWGQGTMVTVSS[omitted - human IgG1 Fc with C220S (EU numbers)]
notes: as for B10
B14: SCR-7785-001-H1-hFc (Fc fusion)
chain: EVQLVESGGGVVQPGGSLRLSCAASGFTFSRGSWGWFRQAPGKEREAVALISSDGWTFYADSVKGRFTISRDNSKNTLYLQMNSLRAEDTAVYYCAASVLVLRTLNPKAWHHWGQGTMVTVSS[omitted - human IgG1 Fc with C220S (EU numbers)]
notes: as for B5
B15: SCR-7782-001-H4-hFc (Fc fusion)
chain: DVQLVESGGGLVQPGGSLRLSCAASDNTFSRGSMSWFRQAPGKEREGVAIISSDGWTGYADSVKGRFTISQDNAKNSLYLQMNSLRAEDTAVYYCAASFLVLRALNPKAWHYWGQGTMVTVSS[omitted - human IgG1 Fc with C220S (EU numbers)]
notes: as for B10
B16: SCR-7782-001-H5-hFc (Fc fusion)
chain: DVQLQASGGGLVQPGGSLRLSCAASDNTFSRGSMSWFRQAPGKEREGVAIISSDGWTGYADSVKGRFTISQDNAKNSLYLQMNSLRAEDTAVYYCAASFLVLRALNPKAWHYWGQGTMVTVSS[omitted - human IgG1 Fc with C220S (EU numbers)]
notes: as for B10
B17: SCR-7782-001-H6-hFc (Fc fusion)
chain: DVQLVESGGGLVQPGGSLRLSCAASDNTFSRGSMSWFRQAPGKEREGVAIISSDGWTGYADSVKGRFTISQDNAKNSLYLQMNSLRAEDTAMYYCAASFLVLRALNPKAWHYWGQGTQVTVSS[omitted - human IgG1 Fc with C220S (EU numbers)]
notes: as for B10
B18: SCR-7783-001-H1-hFc (Fc fusion)
chain: EVQLVESGGGLVQPGGSLRLSCAASGFTFSRGTMAWFRQAPGKEREGVAFINSDGRTSYAESVKGRFTISRDNAKNSLYLQMNSLRAEDTAVYYCAASLLYLMTVNAAAYPYWGQGTMVTVSS[omitted - human IgG1 Fc with C220S (EU numbers)]
notes: as for B1
B19: SCR-7783-001-H2-hFc (Fc fusion)
chain: EVQLVESGGGLVQPGGSLRLSCAASGFPSSRGTMAWFRQAPGKEREGVAFINSDGRTSYAESVKGRFTISRDNAKNSLYLQMNSLRAEDTAVYYCAASLLYLMTVNAAAYPYWGQGTMVTVSS[omitted - human IgG1 Fc with C220S (EU numbers)]
notes: as for B1
B20: SCR-7783-001-H3-hFc (Fc fusion)
chain: DVQLVESGGGLVQPGGSLRLSCAASGFPSSRGTMAWFRQAPGKEREGVAFINSDGRTSYAESVKGRFTISRDNAKNSLYLQMNSLRAEDTAVYYCAASLLYLMTVNAAAYPYWGQGTMVTVSS[omitted - human IgG1 Fc with C220S (EU numbers)]
notes: as for B1

Biological target: T1, Human MUC17 ECD4131-his (His-tagged human MUC17 protein extracellular domain fusion protein) (human, UniProt Q685J3 partial chain)
T1 construct: a truncation of the extracellular domain; also called human MUC17-his protein; human MUC17-His
Assay: SPR (Biacore 8K), antibody captured on Protein A
Method: The strength of antibody-antigen binding was assayed with a BIAcore 8K instrument using an Protein A capture method. First, Protein A was immobilized onto a CM4 chip (purchased from GE, BR-1005-34) using an amino coupling method. According to the instruction of the Amine Coupling Kit (purchased from GE, BR100633), NHS and EDC were mixed with HBS-EP+ pH 7.4 as a mobile phase to activate the chip for about 600 s; the Protein A was diluted to 50 µg/mL with 10 mM sodium acetate (pH 4.5) and injected for 600 s, and finally, the remaining activated sites were blocked with ethanolamine. Then, the affinity of the antibody for the antigen was assayed using a multi-cycle kinetic method; in each cycle, first, the antibody to be tested was captured using the Protein A chip, and then a single concentration of antigen protein was injected. The association and dissociation processes of the antibody with the antigen protein were recorded, and finally, the chip was regenerated using Glycine pH 1.5, wherein the mobile phase was HBS-EP+ (10 mM HEPES, 150 mM NaCl, 3 mM EDTA, 0.05% surfactant P20), the flow rate was […], the regeneration time was 30 s, and the assay temperature was 25° C. Finally, according to a 1:1 binding model, the data were analyzed, and the antibody-antigen binding kinetics parameters, including the association rate constant Ka, the dissociation rate constant Kd, the equilibrium dissociation constant KD, and the maximum binding signal Rmax, were fitted. The association rate (Ka), dissociation rate (Kd), and binding affinity (KD) of the recombinant antibodies Lab315-huFc, Lab316-huFc, Lab320-huFc, Lab331-huFc, and Lab332-huFc with the human MUC17 protein are shown in Table 5.
After the finally obtained various humanized antibodies were expressed and purified, the affinity of the humanized antibodies for the human MUC17 protein was assayed according to the method in Example 3.6.

T1 sequence (Q685J3 other isoform, or with tags, fused parts or gaps): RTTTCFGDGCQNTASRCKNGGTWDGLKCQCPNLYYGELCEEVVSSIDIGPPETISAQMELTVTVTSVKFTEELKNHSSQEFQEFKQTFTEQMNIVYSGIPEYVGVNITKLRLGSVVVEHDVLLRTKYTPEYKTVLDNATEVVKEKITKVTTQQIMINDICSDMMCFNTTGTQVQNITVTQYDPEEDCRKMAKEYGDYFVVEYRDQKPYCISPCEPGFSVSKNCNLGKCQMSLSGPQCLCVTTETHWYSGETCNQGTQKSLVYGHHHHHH

Binder | Kd | koff | kon
B1 | 0.409 nM | 8.77e-05 s⁻¹ | 214000 M⁻¹ s⁻¹
B2 | 0.483 nM | 9.07e-05 s⁻¹ | 188000 M⁻¹ s⁻¹
B3 | 0.498 nM | 9.61e-05 s⁻¹ | 193000 M⁻¹ s⁻¹
B4 | 0.391 nM | 8.52e-05 s⁻¹ | 218000 M⁻¹ s⁻¹
B5 | 1.9 nM | 0.00069 s⁻¹ | 363000 M⁻¹ s⁻¹
B6 | 0.241 nM | 7.41e-05 s⁻¹ | 307000 M⁻¹ s⁻¹
B7 | 0.24 nM | 7.19e-05 s⁻¹ | 300000 M⁻¹ s⁻¹
B8 | 0.222 nM | 6.29e-05 s⁻¹ | 284000 M⁻¹ s⁻¹
B9 | 0.29 nM | 8.41e-05 s⁻¹ | 290000 M⁻¹ s⁻¹
B10 | 2.21 nM | 0.000411 s⁻¹ | 186000 M⁻¹ s⁻¹
B11 | 0.234 nM | 7.24e-05 s⁻¹ | 309000 M⁻¹ s⁻¹
B12 | 1.28 nM | 0.000256 s⁻¹ | 200000 M⁻¹ s⁻¹
B13 | 0.134 nM | 2.58e-05 s⁻¹ | 192000 M⁻¹ s⁻¹
B14 | 1.56 nM | 0.000455 s⁻¹ | 291000 M⁻¹ s⁻¹
B15 | 0.0587 nM | 1.32e-05 s⁻¹ | 224000 M⁻¹ s⁻¹
B16 | 0.049 nM | 9.72e-06 s⁻¹ | 199000 M⁻¹ s⁻¹
B17 | 0.053 nM | 1.23e-05 s⁻¹ | 231000 M⁻¹ s⁻¹
B18 | 1.21 nM | 0.000176 s⁻¹ | 145000 M⁻¹ s⁻¹
B19 | 0.394 nM | 8.28e-05 s⁻¹ | 210000 M⁻¹ s⁻¹
B20 | 0.407 nM | 8.54e-05 s⁻¹ | 210000 M⁻¹ s⁻¹
